The whole screen tested about 46,000 compounds, of which about 60 (0.1%) were called active. About 3% were inconclusive and are not listed. Calls follow the shape of the dose curve; as a rule, active = well fitted inhibition curve with a large enough effect; inconclusive = small, poorly fitted or top-dose-only effect; inactive = no such curve, though single readings can be large or run the other way. The list shows a part of the results.

The nature of this test: Primary qHTS assay for Inhibitors of ovarian cancer metastasis using an organotypic tumor microenvironment (TME) model. Also: nearly all actives have a fitted effect of over 65% in size.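 As to activity change, negative = inhibition: plate controls were DMSO wells for no effect and tomatine positive control wells for full effect.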 As to conditions: SKOV3ip1-GFP adhesion/invasion on 3D omental model, fluorescence; series mostly up to 45.8 µM; activity change, negative = inhibition: at the top concentration. In short, it runs like this: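 A 3D layer of primary human omental fibroblasts, mesothelial cells, fibronectin and collagen I, grown 48 hr, received SKOV3ip1-GFP cells in serum-free medium plus compounds at 0.36-46 umol/L. After 2 hr RT and 16 hr 37 C, fixed adherent GFP cells were counted; normalized to DMSO and tomatine.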
Consider `CCC(NC(=O)Nc1cc(Cl)ccc1OC)c1c(-n2cccc2)sc2c1CCN(C)C2` (stereo unspecified), for which the outcome was inactive.

On to `CCc1ccc(-n2nc3cc(C)c(NC(=O)c4ccccc4C)cc3n2)cc1`, for which the “activity change, negative = inhibition” value is inactive: -1.12%.

Turning to `CCOc1ccc(-c2c(C)nn3c(C)c(C(=O)NCc4ccc(Cl)cc4)cnc23)cc1OCC`, the “activity change, negative = inhibition” value was inactive: 2.55%.

Consider `COc1ccc(OCCn2nnc3sc4c(c3c2=O)CCC(C(C)(C)C)C4)cc1` (stereo unspecified), for which the outcome was inactive.

For `CC1CCN(c2nc3c(-c4cccc(Br)c4)nnn3c3ccccc23)CC1`, the “activity change, negative = inhibition” value was inactive: 9.35%.

In the case of `COc1ccc(CCNC(=O)c2cc(=O)c3cc(C)cc(C)c3o2)cc1OC`, the “activity change, negative = inhibition” value was inactive: 7.73%.

With `O=C(CSc1c2c(nc3ccc(Cl)cc13)CCCC2)NCc1ccccc1Cl`, the molecule was called inactive.

Regarding `N=c1n(CCO)c2ccccc2n1Cc1ccccc1F`, the “activity change, negative = inhibition” value is inactive: -3.66%.

Regarding `Cc1ccc(-c2cc(C(=O)OCC(=O)c3ccccc3)c3cccc(Cl)c3n2)cc1`, the “activity change, negative = inhibition” value is inactive: -4.68%.

As to `CCOc1ccccc1NC(=O)CC(c1ccc(F)cc1)N1Cc2ccccc2C1=O` (stereo unspecified), the molecule was classed as inactive.

Consider `CCC(Sc1nc2ccccc2c2nc(CCn3c(C)nc4ccccc43)nn12)C(=O)Nc1ccc(F)cc1` (stereo unspecified), for which the “activity change, negative = inhibition” value is inactive: 1.64%.

With `COc1ccc(Br)c(C(=O)Nc2cc3c(cc2N2CCCC2)n(C)c(=O)c(=O)n3C)c1`, the “activity change, negative = inhibition” value was inactive: 12.9%.

For the molecule `O=C(OCc1ccco1)c1ccc2c(c1)N(Cc1cccc(F)c1)C(=O)c1ccccc1S2`, the “activity change, negative = inhibition” value is inactive: 15.7%.

On to `Cc1ccc(CN2c3ccccc3S(=O)(=O)c3ccccc32)cc1`, for which the result was inactive.

`COc1ccc(CNC(=O)CC2N=C3c4ccccc4N=C(SCC(=O)Nc4ccc(N(C)C)cc4)N3C2=O)cc1` (stereo unspecified): the call was inactive.

Regarding `Cc1ccc2oc(=O)c3cc(C(=O)N(Cc4ccccc4)C(C)C)sc3c2c1`, the “activity change, negative = inhibition” value is inactive: 8.3%.

For the molecule `CNC(=O)c1ccc(C)c(-n2c(C)cc(OCc3ccc(F)cc3F)c(Br)c2=O)c1`, the “activity change, negative = inhibition” value was inactive: 5.3%.

`O=C(CSc1oc(-c2ccco2)nc1S(=O)(=O)c1ccc(Cl)cc1)c1ccc(Cl)cc1`: the “activity change, negative = inhibition” value is inactive: -1.82%.

On to `Cc1ccc(S(=O)(=O)Nc2cc3c(cc2N2CCOCC2)n(C)c(=O)n3C)c(C)c1`, for which the “activity change, negative = inhibition” value was inactive: 9.52%.

Take `CCN1CCC(N(Cc2cccc(OC)c2)C(=O)Nc2ccc(C)cc2Cl)CC1`: the “activity change, negative = inhibition” value is inactive: -6.81%.

With `Cc1ccc(CSc2nc(=O)c3c(n2C)NC(=O)CC3c2ccc(OC(C)C)cc2)cc1` (stereo unspecified), the “activity change, negative = inhibition” value is inactive: 4.79%.

Turning to `CCC(C(=O)Nc1cccc(C#N)c1)n1c(=O)c(-c2ccccc2NC(C)=O)nc2ccccc21` (stereo unspecified), the “activity change, negative = inhibition” value was inactive: -0.167%.

`CCCCCNC(=O)C(=O)NCC(c1ccc2c(c1)OCO2)N1CCOCC1` (stereo unspecified): the result was inactive.

Regarding `COC1=C2C[C@@H](C)C[C@H](OC)[C@@H](O)[C@@H](C)C=C(C)[C@H](OC(N)=O)[C@@H](OC)C=CC=C(C)C(=O)NC(=CC1=O)C2=O`, the “activity change, negative = inhibition” value was inactive: -4.79%.

For `COc1ccc(-c2c3c(=O)n(C)c(=O)n(C)c3c3c(-c4ccc(C)cc4)nc4ccccc4n23)cc1`, the “activity change, negative = inhibition” value is inactive: -5.91%.

For `Cc1ccc2c(c1)c1c(c(=O)n(Cc3ccccc3)c(=O)n1CC(=O)Nc1ccccc1C)n2C`, the outcome was inactive.

As for `Cc1ccc(NC(=O)Cn2c(-c3ccc4c(c3)OCO4)cn(-c3ccccc3)c2=O)cc1`, the “activity change, negative = inhibition” value was inactive: 10.6%.

Consider `Cc1ccc(C)c(NC(=O)CCCn2nc(C)c3sc4ccccc4c3c2=O)c1`, for which the “activity change, negative = inhibition” value was inactive: 3.4%.

As for `Cc1cc(O)c(C(c2ccccc2Cl)N2CCN(c3ccccc3)CC2)c(=O)n1Cc1ccco1` (stereo unspecified), the “activity change, negative = inhibition” value was inactive: 3.29%.

Consider `CCc1nnc(NC(=O)CSCc2cc(=O)c3ccc(C)cc3[nH]2)s1`, for which the “activity change, negative = inhibition” value is inactive: 1.14%.

With `COc1cc(NC(=O)c2cnn(-c3cccc(F)c3)c2C2CCNCC2)cc(OC)c1OC`, the “activity change, negative = inhibition” value is inactive: -9.2%.

Turning to `CCCN(CCC)CCNC(=O)c1cc2c(-c3ccccc3F)nn(C)c2s1`, the “activity change, negative = inhibition” value was inactive: -20.2%.

As to `COc1ccc(NC(=O)CN(Cc2ccccc2)S(=O)(=O)c2ccc3nc(C)sc3c2)cc1`, the “activity change, negative = inhibition” value is inactive: -7.01%.

In the case of `COc1cc(CN(C(=O)COc2ccc(C)c(C)c2)c2ccccn2)cc(OC)c1OC`, the result was inactive.

In the case of `Cn1nc(C(=O)N2CCN(c3ccccc3F)CC2)c2c1-c1ccccc1SC2`, the molecule was called inactive.

For `Cc1ccc(NC(=O)c2cccn2-c2nnc(N3CCCCC3)s2)cc1Cl`, the “activity change, negative = inhibition” value was inactive: 5.67%.

`O=C1c2oc3ccc(F)cc3c(=O)c2C(c2cccc([N+](=O)[O-])c2)N1CCCN1CCOCC1` (stereo unspecified): the “activity change, negative = inhibition” value was inactive: 2.7%.

Turning to `CCOc1ccc(-c2cnc(NCc3ccc(OC)cc3OC)n2C)cc1`, the “activity change, negative = inhibition” value is inactive: -7.42%.

Regarding `O=C(NCc1ccc(F)cc1)c1ccc(NC(=O)N2CC3CCCN3c3ccccc32)cc1` (stereo unspecified), the “activity change, negative = inhibition” value was inactive: -19%.

As to `COCCNC(=O)C1CCCN(S(=O)(=O)c2ccc3c(ccn3C)c2)C1` (stereo unspecified), the “activity change, negative = inhibition” value is inactive: 2.63%.

As to `CCCCN(CC)CCCNC(=O)c1cc2c(-c3ccc(OC)c(OC)c3)nn(C)c2s1`, the molecule was called inactive.

For `CCN(CC)CCNC(=O)Cn1ncc2c([nH]c3ccccc32)c1=O`, the molecule was classed as inactive.

Turning to `CN1C2CCC1CC(OC(=O)C(CO)c1ccccc1)C2` (stereo unspecified), the “activity change, negative = inhibition” value is inactive: -9.9%.

With `CCc1c(C)sc2c1CCN(Cc1ccc(F)cc1)C2c1ccccc1` (stereo unspecified), the “activity change, negative = inhibition” value is inactive: -1.09%.

Take `CCCCNC(=O)CCCn1c(=O)c2ccccc2n(Cc2ccccc2C)c1=O`: the molecule was classed as inactive.

Turning to `COc1ccc(CNC(=O)COCc2cc(-c3cccs3)on2)cc1OC`, the “activity change, negative = inhibition” value is inactive: 8.5%.

On to `COc1ccc(Cl)cc1NC(=O)CCC(=O)c1ccc(C)cc1`, for which the “activity change, negative = inhibition” value was inactive: 0.827%.

`CC(=O)c1ccc(NC(=O)c2ncn(-c3ccccc3)n2)cc1`: the “activity change, negative = inhibition” value was inactive: -4.58%.

For the molecule `CCc1ccc(CN(C(=O)c2cc3ccccc3oc2=O)C2CCS(=O)(=O)C2)cc1` (stereo unspecified), the “activity change, negative = inhibition” value was inactive: -8.68%.

For `Cc1ccc(CSc2cn(CC(=O)N3CCCCC3)c3ccccc23)cc1`, the “activity change, negative = inhibition” value is inactive: -60.8%.

`Cc1ccc2nc(N(Cc3cccnc3)C(=O)C3COc4ccccc4O3)sc2c1` (stereo unspecified): the “activity change, negative = inhibition” value is inactive: 5.01%.

As to `CC(=O)Nc1cccc(C(=O)NCc2ccc3c(c2)CCN3C(C)=O)c1`, the “activity change, negative = inhibition” value was inactive: -1.34%.

With `CC(=O)c1[nH]c(C)c(C(=O)NCCc2ccc(C)cc2)c1C`, the “activity change, negative = inhibition” value is inactive: 0.247%.

Consider `Cc1ccc(C2=Nc3ccccc3N(CC(=O)Nc3cccc(F)c3)C(=O)C2)cc1C`, for which the “activity change, negative = inhibition” value is inactive: -7.45%.

As for `COc1ccc(-c2noc(-c3ccc(NCc4ccccc4OC)c([N+](=O)[O-])c3)n2)cc1`, the call was inactive.

In the case of `CCn1cc(C(=O)NCCc2ccccc2)c(=O)c2cc(S(=O)(=O)N(C)C3CCCCC3)ccc21`, the “activity change, negative = inhibition” value is inactive: -20.8%.

`O=C(CN1CCN(Cc2ccc(Cl)cc2)C1=O)NCc1ccc(F)cc1`: the molecule was called inactive.

For the molecule `Cc1cc(C)c(NC(=O)CSc2nccn2Cc2ccco2)c(C)c1`, the “activity change, negative = inhibition” value was inactive: 4.29%.

In the case of `Cc1c(CCNC(=O)Cc2ccccc2)sc2nc(-c3ccc(F)cc3)nn12`, the molecule was called inactive.

`CCOc1ccccc1N(C)C(=O)C1CCCN(c2ncnc3onc(-c4ccc(F)cc4)c23)C1` (stereo unspecified): the “activity change, negative = inhibition” value was inactive: 4.63%.

As for `O=c1oc2c3c(ccc2c2ccccc12)OCN(Cc1cccc(Cl)c1)C3`, the “activity change, negative = inhibition” value was inactive: -4.51%.

Values taken from PubChem BioAssay AID1963576 (National Center for Advancing Translational Sciences (NCATS), 2024).
